# Measured values taken from the supplement of paper PMC8728848.
# The other results are listed elsewhere or left out.
# What was measured:
# Assay in all cases: glycan array binding signal (z-score within array); higher = stronger binding
# Conditions in all cases: glycan notation: IUPAC condensed, linker removed
# [1] = biological target: Fuc(a1-2)Gal
# How it was run: (§1)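 The binding signal is a Z-score computed within each array. Data were drawn from 3228 arrays in the Consortium for Functional Glycomics database, restricted to those with a known protein sequence. Scores were averaged over arrays of the same protein sequence at different concentrations or buffers, and over linkers, and negative values can be taken as non-binding.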
# [2] = biological target: Fuc(a1-2)Gal(b1-3)GalNAc
# How it was run: as §1
# [3] = biological target: Fuc(a1-2)Gal(b1-3)GalNAc(a1-3)[Fuc(a1-2)]Gal(b1-4)Glc
# How it was run: as §1
# [4] = biological target: Fuc(a1-2)Gal(b1-3)GalNAc(a1-3)[Fuc(a1-2)]Gal(b1-4)GlcNAc
# How it was run: as §1
# [5] = biological target: Fuc(a1-2)Gal(b1-3)GalNAc(b1-3)Gal
# How it was run: as §1
# [6] = biological target: Fuc(a1-2)Gal(b1-3)GalNAc(b1-3)Gal(a1-4)Gal(b1-4)Glc
# How it was run: as §1
# [7] = biological target: Fuc(a1-2)Gal(b1-3)GalNAc(b1-4)[Neu5Ac(a2-3)]Gal(b1-4)Glc
# How it was run: as §1
# [8] = biological target: Fuc(a1-2)Gal(b1-3)GlcNAc
# How it was run: as §1
# [9] = biological target: Fuc(a1-2)Gal(b1-3)GlcNAc(b1-2)Man(a1-3)[Fuc(a1-2)Gal(b1-3)GlcNAc(b1-2)Man(a1-6)]Man(b1-4)GlcNAc(b1-4)GlcNAc
# How it was run: as §1
# [10] = biological target: Fuc(a1-2)Gal(b1-3)GlcNAc(b1-2)Man(a1-3)[Fuc(a1-2)Gal(b1-3)GlcNAc(b1-2)Man(a1-6)]Man(b1-4)GlcNAc(b1-4)[Fuc(a1-6)]GlcNAc
# How it was run: as §1
# [11] = biological target: Fuc(a1-2)Gal(b1-3)GlcNAc(b1-3)Gal(b1-4)Glc
# How it was run: as §1
# [12] = biological target: Fuc(a1-2)Gal(b1-3)GlcNAc(b1-3)GalNAc
# How it was run: as §1
# [13] = biological target: Fuc(a1-2)Gal(b1-3)GlcNAc(b1-3)[Fuc(a1-2)Gal(b1-3)GlcNAc(b1-6)]GalNAc
# How it was run: as §1
# [14] = biological target: Fuc(a1-2)Gal(b1-3)GlcNAc(b1-3)[Gal(b1-4)GlcNAc(b1-6)]Gal(b1-4)Glc
# How it was run: as §1
# [15] = biological target: Fuc(a1-2)Gal(b1-3)GlcNAc(b1-3)[Neu5Ac(a2-6)Gal(b1-4)GlcNAc(b1-6)]Gal(b1-4)Glc
# How it was run: as §1
# [16] = biological target: Fuc(a1-2)Gal(b1-3)GlcNAc6S
# How it was run: as §1
# [17] = biological target: Fuc(a1-2)Gal(b1-3)[Fuc(a1-4)]GlcNAc
# How it was run: as §1
# [18] = biological target: Fuc(a1-2)Gal(b1-3)[Fuc(a1-4)]GlcNAc(b1-2)Man(a1-3)[Fuc(a1-2)Gal(b1-3)[Fuc(a1-4)]GlcNAc(b1-2)Man(a1-3)]Man(b1-4)GlcNAc(b1-4)GlcNAc
# How it was run: as §1
# [19] = biological target: Fuc(a1-2)Gal(b1-3)[Fuc(a1-4)]GlcNAc(b1-2)Man(a1-3)[Fuc(a1-2)Gal(b1-3)[Fuc(a1-4)]GlcNAc(b1-2)Man(a1-6)]Man(b1-4)GlcNAc(b1-4)[Fuc(a1-6)]GlcNAc(b1-4)[Fuc(a1-6)]GlcNAc
# How it was run: as §1
# [20] = biological target: Fuc(a1-2)Gal(b1-3)[Fuc(a1-4)]GlcNAc(b1-3)[Fuc(a1-3)[Gal(b1-4)]GlcNAc(b1-6)]Gal(b1-4)Glc
# How it was run: as §1
# [21] = biological target: Fuc(a1-2)Gal(b1-3)[Fuc(a1-4)]GlcNAc(b1-3)[Gal(b1-4)GlcNAc(b1-6)]Gal(b1-4)Glc
# How it was run: as §1
# [22] = biological target: Fuc(a1-2)Gal(b1-4)Fuc(a1-3)]GlcNAc(b1-2)Man(a1-3)[Fuc(a1-2)Gal(b1-4)[Fuc(a1-3)]GlcNAc(b1-2)Man(a1-6)]Man(b1-4)GlcNAc(b1-4)GlcNAc
# How it was run: as §1
# [23] = biological target: Fuc(a1-2)Gal(b1-4)Glc
# How it was run: as §1
# [24] = biological target: Fuc(a1-2)Gal(b1-4)Glc6S
# How it was run: as §1
# [25] = biological target: Fuc(a1-2)Gal(b1-4)GlcNAc
# How it was run: as §1
# [26] = biological target: Fuc(a1-2)Gal(b1-4)GlcNAc(b1-2)Man
# How it was run: as §1
# [27] = biological target: Fuc(a1-2)Gal(b1-4)GlcNAc(b1-2)Man(a1-3)[Fuc(a1-2)Gal(b1-4)GlcNAc(b1-2)Man(a1-6)]Man(b1-4)GlcNAc(b1-4)GlcNAc
# How it was run: as §1
# [28] = biological target: Fuc(a1-2)Gal(b1-4)GlcNAc(b1-2)Man(a1-3)[Fuc(a1-2)Gal(b1-4)GlcNAc(b1-2)Man(a1-6)]Man(b1-4)GlcNAc(b1-4)[Fuc(a1-6)]GlcNAc
# How it was run: as §1
# [29] = biological target: Fuc(a1-2)Gal(b1-4)GlcNAc(b1-2)[Fuc(a1-2)Gal(b1-4)GlcNAc(b1-4)]Man(a1-3)[Fuc(a1-2)Gal(b1-4)GlcNAc(b1-2)Man(a1-6)]Man(b1-4)GlcNAc(b1-4)GlcNAc
# How it was run: as §1
# [30] = biological target: Fuc(a1-2)Gal(b1-4)GlcNAc(b1-3)Gal(b1-4)GlcNAc
# How it was run: as §1
binder,measurement,setting,value
"Sebin2 (Coprinopsis cinerea), A8PE78 (protein) MTTPFYAYCHNVQDDNTWRLGLVFANRSTADEWWRAISEATSSIPITKSITRVTPQYYTHDIRVWNMYNFFVDGNIKSISDKFRGRLFITLEYDRSGRGVSVFPPLHIVDHVSGNWYYIRSKTAPHLFWFYDETRNAIYASKEKRTRFKVSIRNPSPQTPKDAIMINSDDVVIHIKESLYVGVDSYLGHIIPTRAYRTFKFGELEGGAIAGIEVAENAEERCSSTFDGASLYFVGPDSSSPGEPWELV",glycan array binding signal (z-score),[1],-0.328
same,glycan array binding signal (z-score),[2],-0.315
same,glycan array binding signal (z-score),[3],0.019
same,glycan array binding signal (z-score),[4],-0.4
same,glycan array binding signal (z-score),[5],-0.584
same,glycan array binding signal (z-score),[6],0.1
same,glycan array binding signal (z-score),[7],-0.117
same,glycan array binding signal (z-score),[8],-0.146
same,glycan array binding signal (z-score),[9],0.911
same,glycan array binding signal (z-score),[10],0.377
same,glycan array binding signal (z-score),[11],-0.04
same,glycan array binding signal (z-score),[12],-0.146
same,glycan array binding signal (z-score),[13],-0.358
same,glycan array binding signal (z-score),[14],-0.116
same,glycan array binding signal (z-score),[15],-0.54
same,glycan array binding signal (z-score),[16],-0.236
same,glycan array binding signal (z-score),[17],-0.281
same,glycan array binding signal (z-score),[18],-0.281
same,glycan array binding signal (z-score),[19],-0.181
same,glycan array binding signal (z-score),[20],-0.567
same,glycan array binding signal (z-score),[21],-0.309
same,glycan array binding signal (z-score),[22],0.707
same,glycan array binding signal (z-score),[23],-0.092
same,glycan array binding signal (z-score),[24],-0.139
same,glycan array binding signal (z-score),[25],-0.015
same,glycan array binding signal (z-score),[26],-0.007
same,glycan array binding signal (z-score),[27],0.006
same,glycan array binding signal (z-score),[28],0.03
same,glycan array binding signal (z-score),[29],0.019
same,glycan array binding signal (z-score),[30],-0.482
